According to the supplement of paper PMC8728848:
The list shows a part of the results.

Tests used:
Test in all cases: glycan array binding signal (z-score within array); higher = stronger binding
Conditions in all cases: glycan notation: IUPAC condensed, linker removed
Fuc(a1-2)Gal = biological target: Fuc(a1-2)Gal
Summary of the method: (§1)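 From the Consortium for Functional Glycomics database, 3228 arrays were curated, keeping only those whose protein sequence was available. Binding is given as a within-array Z-score averaged across arrays sharing a protein sequence and across linkers. Negative Z-scores can be read as non-binding.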

Fuc(a1-2)Gal(b1-3)GalNAc = biological target: Fuc(a1-2)Gal(b1-3)GalNAc
Summary of the method: as §1

[1] = biological target: Fuc(a1-2)Gal(b1-3)GalNAc(a1-3)[Fuc(a1-2)]Gal(b1-4)Glc
Summary of the method: as §1

[2] = biological target: Fuc(a1-2)Gal(b1-3)GalNAc(a1-3)[Fuc(a1-2)]Gal(b1-4)GlcNAc
Summary of the method: as §1

[3] = biological target: Fuc(a1-2)Gal(b1-3)GalNAc(b1-3)Gal
Summary of the method: as §1

[4] = biological target: Fuc(a1-2)Gal(b1-3)GalNAc(b1-3)Gal(a1-4)Gal(b1-4)Glc
Summary of the method: as §1

[5] = biological target: Fuc(a1-2)Gal(b1-3)GalNAc(b1-4)[Neu5Ac(a2-3)]Gal(b1-4)Glc
Summary of the method: as §1

Fuc(a1-2)Gal(b1-3)GlcNAc = biological target: Fuc(a1-2)Gal(b1-3)GlcNAc
Summary of the method: as §1

[6] = biological target: Fuc(a1-2)Gal(b1-3)GlcNAc(b1-2)Man(a1-3)[Fuc(a1-2)Gal(b1-3)GlcNAc(b1-2)Man(a1-6)]Man(b1-4)GlcNAc(b1-4)GlcNAc
Summary of the method: as §1

[7] = biological target: Fuc(a1-2)Gal(b1-3)GlcNAc(b1-2)Man(a1-3)[Fuc(a1-2)Gal(b1-3)GlcNAc(b1-2)Man(a1-6)]Man(b1-4)GlcNAc(b1-4)[Fuc(a1-6)]GlcNAc
Summary of the method: as §1

[8] = biological target: Fuc(a1-2)Gal(b1-3)GlcNAc(b1-3)Gal(b1-4)Glc
Summary of the method: as §1

[9] = biological target: Fuc(a1-2)Gal(b1-3)GlcNAc(b1-3)GalNAc
Summary of the method: as §1

[10] = biological target: Fuc(a1-2)Gal(b1-3)GlcNAc(b1-3)[Fuc(a1-2)Gal(b1-3)GlcNAc(b1-6)]GalNAc
Summary of the method: as §1

[11] = biological target: Fuc(a1-2)Gal(b1-3)GlcNAc(b1-3)[Gal(b1-4)GlcNAc(b1-6)]Gal(b1-4)Glc
Summary of the method: as §1

[12] = biological target: Fuc(a1-2)Gal(b1-3)GlcNAc(b1-3)[Neu5Ac(a2-6)Gal(b1-4)GlcNAc(b1-6)]Gal(b1-4)Glc
Summary of the method: as §1

[13] = biological target: Fuc(a1-2)Gal(b1-3)GlcNAc6S
Summary of the method: as §1

[14] = biological target: Fuc(a1-2)Gal(b1-3)[Fuc(a1-4)]GlcNAc
Summary of the method: as §1

[15] = biological target: Fuc(a1-2)Gal(b1-3)[Fuc(a1-4)]GlcNAc(b1-2)Man(a1-3)[Fuc(a1-2)Gal(b1-3)[Fuc(a1-4)]GlcNAc(b1-2)Man(a1-3)]Man(b1-4)GlcNAc(b1-4)GlcNAc
Summary of the method: as §1

[16] = biological target: Fuc(a1-2)Gal(b1-3)[Fuc(a1-4)]GlcNAc(b1-2)Man(a1-3)[Fuc(a1-2)Gal(b1-3)[Fuc(a1-4)]GlcNAc(b1-2)Man(a1-6)]Man(b1-4)GlcNAc(b1-4)[Fuc(a1-6)]GlcNAc(b1-4)[Fuc(a1-6)]GlcNAc
Summary of the method: as §1

[17] = biological target: Fuc(a1-2)Gal(b1-3)[Fuc(a1-4)]GlcNAc(b1-3)[Fuc(a1-3)[Gal(b1-4)]GlcNAc(b1-6)]Gal(b1-4)Glc
Summary of the method: as §1

[18] = biological target: Fuc(a1-2)Gal(b1-3)[Fuc(a1-4)]GlcNAc(b1-3)[Gal(b1-4)GlcNAc(b1-6)]Gal(b1-4)Glc
Summary of the method: as §1

Fuc(a1-2)Gal(b1-4)Glc = biological target: Fuc(a1-2)Gal(b1-4)Glc
Summary of the method: as §1

Fuc(a1-2)Gal(b1-4)Glc6S = biological target: Fuc(a1-2)Gal(b1-4)Glc6S
Summary of the method: as §1

Fuc(a1-2)Gal(b1-4)GlcNAc = biological target: Fuc(a1-2)Gal(b1-4)GlcNAc
Summary of the method: as §1

[19] = biological target: Fuc(a1-2)Gal(b1-4)GlcNAc(b1-2)Man
Summary of the method: as §1

[20] = biological target: Fuc(a1-2)Gal(b1-4)GlcNAc(b1-2)Man(a1-3)[Fuc(a1-2)Gal(b1-4)GlcNAc(b1-2)Man(a1-6)]Man(b1-4)GlcNAc(b1-4)GlcNAc
Summary of the method: as §1

[21] = biological target: Fuc(a1-2)Gal(b1-4)GlcNAc(b1-2)Man(a1-3)[Fuc(a1-2)Gal(b1-4)GlcNAc(b1-2)Man(a1-6)]Man(b1-4)GlcNAc(b1-4)[Fuc(a1-6)]GlcNAc
Summary of the method: as §1

[22] = biological target: Fuc(a1-2)Gal(b1-4)GlcNAc(b1-2)[Fuc(a1-2)Gal(b1-4)GlcNAc(b1-4)]Man(a1-3)[Fuc(a1-2)Gal(b1-4)GlcNAc(b1-2)Man(a1-6)]Man(b1-4)GlcNAc(b1-4)GlcNAc
Summary of the method: as §1

[23] = biological target: Fuc(a1-2)Gal(b1-4)GlcNAc(b1-3)Gal(b1-4)GlcNAc
Summary of the method: as §1

[24] = biological target: Fuc(a1-2)Gal(b1-4)GlcNAc(b1-3)Gal(b1-4)GlcNAc(b1-2)Man(a1-3)[Fuc(a1-2)Gal(b1-4)GlcNAc(b1-3)Gal(b1-4)GlcNAc(b1-2)Man(a1-6)]Man(b1-4)GlcNAc(b1-4)GlcNAc
Summary of the method: as §1

B1: PV12658A-bvu-496-32-496 (Bacteroides vulgatus) (protein)
chain: DLDGAITTPAAVELALNGIYYSLPGNGFNVIFPTVSGSFKAGTMWRQEIVSAGNAVYYSERMLPTLSFSDATEWDADYAVIKNANFLETACNRMSDGEFSGNRRAEVLGEIAYLRALAYFNILVRYCEFWDMNSEYGVVMRNEAPSVSNALKARSSVADSYQYILDQLEIAIEKAPDWKKLSQASKEAAKALKARVLLYAGKYTEAVAAVNDAIDTNSPLPEANYGDVFDKFSTTKEILFARVFDQKDATNTSTRQQCYGNSPTKKQGYWGPTNEYVELVGDDPRADAIFSKVDSLMDSRSSAVAYNLKSVKKLLNDANDMPVIFSRVSELYLIKAEALYRSGASISEAYAPIRKLRERAGAEIILPANNEELETAIFNEWMLELSFENWHEWFAMIRFAGYTEKPDFTRLLALNKTLREALEKEYEKSEAQGDNYYQRIIDRRIDAIPSSEISSNLECKQNPGY
- glycan array binding signal (z-score) (Fuc(a1-2)Gal): -0.214
- glycan array binding signal (z-score) (Fuc(a1-2)Gal(b1-3)GalNAc): -0.423
- glycan array binding signal (z-score) [1]: -0.452
- glycan array binding signal (z-score) [2]: -0.281
- glycan array binding signal (z-score) [3]: 0.301
- glycan array binding signal (z-score) [4]: -0.139
- glycan array binding signal (z-score) [5]: -0.212
- glycan array binding signal (z-score) (Fuc(a1-2)Gal(b1-3)GlcNAc): -0.196
- glycan array binding signal (z-score) [6]: 0.065
- glycan array binding signal (z-score) [7]: -0.166
- glycan array binding signal (z-score) [8]: -0.333
- glycan array binding signal (z-score) [9]: -0.384
- glycan array binding signal (z-score) [10]: 0.662
- glycan array binding signal (z-score) [11]: -0.304
- glycan array binding signal (z-score) [12]: -0.281
- glycan array binding signal (z-score) [13]: -0.045
- glycan array binding signal (z-score) [14]: -0.344
- glycan array binding signal (z-score) [15]: -0.007
- glycan array binding signal (z-score) [16]: 0.206
- glycan array binding signal (z-score) [17]: -0.507
- glycan array binding signal (z-score) [18]: -0.34
- glycan array binding signal (z-score) (Fuc(a1-2)Gal(b1-4)Glc): -0.117
- glycan array binding signal (z-score) (Fuc(a1-2)Gal(b1-4)Glc6S): -0.163
- glycan array binding signal (z-score) (Fuc(a1-2)Gal(b1-4)GlcNAc): -0.367
- glycan array binding signal (z-score) [19]: -0.199
- glycan array binding signal (z-score) [20]: -0.014
- glycan array binding signal (z-score) [21]: 0.201
- glycan array binding signal (z-score) [22]: 0.13
- glycan array binding signal (z-score) [23]: -0.446
- glycan array binding signal (z-score) [24]: 0.017
